About 1,700 (3.3%) of roughly 52,000 compounds were called active. No stated cut-off is given here; in the data, active means survival mostly below about 52% (no sharp cut-off); inactive means mostly above about 56%. Some of the results follow.
Each compound was assayed on Wild type (assay: S. aureus survival, RN4220 and DeltatarO strains – OD600, teichoic acid synthesis inhibitors, primary screen (AID 463173)). Conditions: S. aureus RN4220 wild type/DeltatarO growth, OD600, 18 h, hits give low values, screened at 18.75 µg/mL (by protocol).

| SMILES | survival |
| --- | --- |
| COc1ccc(-c2cn3nc(N4CCC(C(=O)NCc5ccccc5F)CC4)sc3n2)cc1 | inactive: 77% |
| Cc1ccc(NCc2cccn2-c2nnc(N3CCC(C(=O)NC(C)C)CC3)s2)cc1 | inactive: 121% |
| Cc1ccc(S(=O)(=O)N2CCCc3cc(NS(=O)(=O)c4ccc(F)c(C)c4)ccc32)cc1 | inactive: 81% |
| CCOC(=O)c1c(NC(=O)CS(=O)(=O)c2ccc(C)cc2)sc2c1CCCCC2 | inactive: 87% |
| COc1ccc(CNc2ncnc3onc(C)c23)cc1 | inactive: 91% |
| COc1ccc(NC(=O)Cn2c(=O)oc3cc(S(=O)(=O)NC4CCCC4)ccc32)cc1OC | inactive: 78% |
| CCCNC(=O)c1ccc2c(c1)ncn2-c1ccc(C)cc1C | inactive: 59% |
| CN(C)CCNC(=O)c1ccc(-n2c(-c3ccccc3)cc3c2CCCC3)cc1 | inactive: 29% |
| CCc1ccc(CNC(=O)c2ccc3c(c2)N=C(C)c2cc(C)ccc2S3)cc1 | inactive: 93% |
| Cn1c(=O)c2c(SCC(=O)N3CCc4ccccc43)nc(-c3ccccc3Cl)nc2n(C)c1=O | inactive: 85% |
| Cc1nc(-c2ccccc2)sc1-c1ccc(SCC(=O)NCc2ccc(F)cc2)nn1 | inactive: 98% |
| Cc1ccc(-c2nc3cccnc3s2)cc1NC(=O)C(C)C | inactive: 116% |
| Cc1ccc(-c2ccc(=O)n(Cc3cc(C)ccc3C)n2)cc1 | inactive: 92% |
| CC1=Nc2cc(C(=O)NCCc3ccc(Cl)cc3)ccc2Sc2ccc(C)cc21 | inactive: 80% |
| CCC(CC)C(=O)NC1CC(=O)N(c2ccc3c(c2)OCCO3)C1 (stereo not drawn) | inactive: 135% |
| Cc1ccc(C(C)C)c(OCC(=O)Nc2cccc(NC(=O)c3ccco3)c2)c1 | active: 12% |
| CCOc1ccc(-n2c(SCC(=O)N3CCCC3)nc3c([nH]c4ccccc43)c2=O)cc1 | inactive: 73% |
| COC(=O)C(Cc1c[nH]c2ccccc12)NC(=O)COc1ccc(Cl)cc1Cl (stereo not drawn) | inactive: 54% |
| O=C(CSc1nc2ccccc2c(=O)n1-c1ccccc1)N1CCOCC1 | inactive: 104% |
| CCOc1ccc(-n2c(CCC(=O)O)ccc2-c2ccc(Br)cc2)cc1 | inactive: 77% |
| CCN(c1cc(C)cc(C)c1)S(=O)(=O)c1nnc(NC(=O)c2cccs2)s1 | inactive: 23% |
| CCc1ccc(CNC(=O)CCSCc2ccccc2F)cc1 | inactive: 70% |

| SMILES | survival |
| --- | --- |
| Cc1cccc(NS(=O)(=O)c2ccc3[nH]c(=O)ccc3c2)c1C | inactive: 101% |
| COc1cc(NC(=O)Cn2c(=O)oc3cc(S(=O)(=O)N4CCCCCC4)ccc32)cc(OC)c1 | inactive: 80% |
| Cc1oc2ccc(O)c(CN(C)Cc3ccccc3)c2c1C(=O)Nc1cccc(C(F)(F)F)c1 | active: 10% |
| COc1ccccc1OCCn1c(-c2ccc(Cl)cc2)nc2ccccc2c1=O | inactive: 77% |
| COc1ccc(C(=O)c2cn(CC(=O)Nc3ccc4c(c3)OCCO4)c3ccc(OC)cc3c2=O)cc1 | inactive: 92% |
| CCN(C(=O)Cc1nc(-c2ccc(OC)cc2)no1)c1cccc(Cl)c1 | inactive: 84% |
| O=C(Cn1c(=O)nc(-c2ccccc2)c2ccccc21)Nc1ccc(Cl)c(C(F)(F)F)c1 | inactive: 73% |
| O=C(CSc1nc(-c2ccccc2)no1)N1CCN(c2ccccc2F)CC1 | inactive: 69% |
| COc1cccc(C2=CC(c3ccc(OC)c(OC)c3OC)n3ncnc3N2)c1 (stereo not drawn) | inactive: 119% |
| COc1cc(C2c3c(oc4ccccc4c3=O)C(=O)N2c2nncs2)cc(OC)c1OC (stereo not drawn) | inactive: 76% |
| Cc1cccc(-c2cc(NC(=O)C(C)(C)C)n(-c3ccccc3)n2)c1 | inactive: 78% |
| COc1ccc(C(CC(=O)Nc2cccc(C)c2C)N2Cc3ccccc3C2=O)cc1 (stereo not drawn) | inactive: 68% |
| CCC1CN(C(=O)N2CCC(C(=O)Nc3cc(C)ccc3C)CC2)c2ccccc2O1 (stereo not drawn) | inactive: 108% |
| CCOc1ccc(-c2cn3c(n2)sc2cc(C(=O)NCCCc4ccccc4)ccc23)cc1 | inactive: 96% |
| Cc1nc2nc(SCc3ccc(F)cc3Cl)nn2c(C)c1Cc1ccccc1 | inactive: 71% |
| Cc1cccc2cc(CNCc3ccco3)c(=O)[nH]c12 | inactive: 105% |
| O=C(COc1ccc(F)cc1)Nc1ccccc1C(=O)OCc1cc(=O)n2nc(C3CC3)sc2n1 | inactive: 99% |
| CC(NC(=O)c1ccc(Nc2nc3ccccc3n3nnnc23)cc1)c1ccccc1 (stereo not drawn) | inactive: 83% |
| O=C(CS(=O)(=O)c1cccc2nsnc12)NCc1ccc(Cl)cc1 | inactive: 152% |
| COc1ccc(-c2c(C)nn3c4c(cnc23)C(=O)CC(c2ccccc2)C4)cc1 (stereo not drawn) | inactive: 97% |
| O=C(O)CCc1ccc(-c2cccs2)[nH]1 | inactive: 112% |
| Cc1nc2nc(-c3ccc(Cl)cc3Cl)nn2c(C)c1CCC(=O)Nc1ccc(F)cc1 | inactive: 98% |

| SMILES | survival |
| --- | --- |
| COc1cccc(N2CC(NC(=O)c3ccc4c(c3)OCO4)CC2=O)c1 (stereo not drawn) | inactive: 79% |
| CCCCN(C)CCCNC(=O)CN1C(=O)COc2ccc(S(=O)(=O)N3CCOCC3)cc21 | inactive: 78% |
| O=C(N1CCOCC1)N1CCC(NC(=O)C23CC4CC(CC(C4)C2)C3)CC1 | inactive: 107% |
| CC(=O)c1ccc(NC(=O)C2CCCN(S(=O)(=O)c3ccc4c(c3)CCCN4C(C)=O)C2)cc1 (stereo not drawn) | inactive: 92% |
| COc1ccccc1N1CCN(S(=O)(=O)c2c(C)sc3ncn(CC(=O)Nc4ccc(C(F)(F)F)cc4)c(=O)c23)CC1 | inactive: 88% |
| Cc1cc(C)c(NC(=O)CCCN2C(=O)COc3ccc(C)cc32)c(C)c1 | inactive: 116% |
| CCCCn1c(=O)c(C(=O)OCC)c(O)c2ccccc21 | inactive: 100% |
| COc1ccc(CCNC(=O)CN(c2cc(C(F)(F)F)ccc2Cl)S(C)(=O)=O)cc1 | inactive: 68% |
| Cc1ccc(OCC(=O)Nc2ccccc2C(=O)OCc2cc(=O)n3ccsc3n2)cc1C | inactive: 72% |
| CCc1ccc(NC(=O)c2cc3nc(-c4ccc(C)cc4)cc(C(F)(F)F)n3n2)cc1 | inactive: 60% |
| COC(=O)c1sc(NC(=O)c2cc3nc(-c4ccc(Br)cc4)cc(C(F)(F)F)n3n2)c(C(=O)OC)c1C | inactive: 49% |
| O=C(O)Cc1sc(Nc2ccccc2Cl)nc1-c1ccccc1 | inactive: 63% |
| CCOC(=O)c1c(NC(=O)Cc2coc3cc(C)ccc23)sc2c1CCCC2 | inactive: 107% |
| O=C(Cn1ccc2cc(S(=O)(=O)N3CCCCC3)ccc21)NCCc1ccc(Cl)cc1 | inactive: 73% |
| CCOC(=O)c1cc(S(=O)(=O)N2CCN(c3cc(C)ccc3C)CC2)[nH]n1 | inactive: 90% |
| Cc1cccc(C)c1N1CC(c2nc3ccccc3n2CC(=O)OC(C)C)CC1=O (stereo not drawn) | inactive: 85% |
| COc1ccccc1Nc1nn2c(=O)c3ccc(C(=O)N4CCCCC4)cc3nc2s1 | inactive: 70% |
| CCC1=NN(C(=O)COc2ccccc2C)C(O)(c2ccncc2)C1 (stereo not drawn) | inactive: 107% |
| COc1ccc(NC(=O)CSc2nc3cc(OC)c(OC)cc3c3nc(-c4ccccc4)nn23)cc1Cl | inactive: 129% |
| CCCN(CCC)C(=O)CSc1nc2ccccc2c(=O)n1Cc1ccco1 | inactive: 72% |
| COc1ccc(CC(=O)NCc2nc3cccnc3n2Cc2ccc(C)cc2)cc1 | inactive: 69% |
| COc1cc(-c2ccno2)ccc1S(=O)(=O)N1CCN(c2ccccc2F)CC1 | inactive: 81% |

| SMILES | survival |
| --- | --- |
| COC(=O)c1ccc(NC(=O)C(=O)NCCc2sc(-c3cccc(F)c3)nc2C)cc1 | inactive: 68% |
| CC1CCN(S(=O)(=O)c2cc3c4c(c2)CC(=O)N4CCC3)CC1 | inactive: 75% |
| CC1CCCCN1C(=O)C12CCC(C)(C(=O)C1)C2(C)C (stereo not drawn) | inactive: 97% |
| Cc1ccc(-c2c(C)n3c4c(=O)n(C)c(=O)n(C)c4nc3n2-c2cccc(O)c2)cc1 | inactive: 129% |
| Fc1ccc(-c2cc(-c3ccccc3)c3c(n2)-c2cc(F)ccc2OC3)cc1 | inactive: 104% |
| Cc1cc(C)cc(NC(=O)CSc2oc(-c3cccs3)nc2S(=O)(=O)c2ccccc2)c1 | inactive: 147% |
| CCC1CCCCN1C(=O)CSc1ncc(-c2ccc(F)cc2)n1CC (stereo not drawn) | inactive: 104% |
| COc1ccc(S(=O)(=O)NCC(c2ccco2)N2CCOCC2)cc1 (stereo not drawn) | inactive: 135% |
| CN(C)S(=O)(=O)c1ccc2c(c1)nnn2CCNC(=O)Nc1ccc(Br)cc1 | inactive: 59% |
| Cn1c(=O)c2c(nc(NCc3ccccc3)n2Cc2ccccc2Cl)n(C)c1=O | inactive: 72% |
| O=C(C1CC1)N1CCN(c2nc3ccc(F)cc3s2)CC1 | inactive: 128% |
| COc1cccc(OCc2nc3ccccc3n2CCOc2ccccc2C)c1 | inactive: 55% |
| CCCCOc1ccc(CNC(=O)c2cnc3sc(N4CCOCC4)nn3c2=O)cc1 | inactive: 97% |
| O=C(CCn1ccc2cc(S(=O)(=O)N3CCCC3)ccc21)NCc1cccc(Br)c1 | inactive: 131% |
| COc1ccc(CCNC(=O)CCCCn2c(=O)c3ccccc3n(Cc3ccc(F)cc3Cl)c2=O)cc1OC | inactive: 90% |
| Cc1ccc(-c2nc3ncccc3o2)cc1NC(=O)c1cccc(OCC(C)C)c1 | inactive: 74% |
| Cc1ccc(C(=O)NCC(c2cccnc2)N2CCc3ccccc32)cc1C (stereo not drawn) | inactive: 78% |
| Cc1ccc(C)c(Nc2nn3c(=O)c4ccc(C(=O)NC5CCCCC5)cc4nc3s2)c1 | inactive: 73% |
| Cc1c(C)n(Cc2ccccc2)c2ccc(C(=O)NCc3ccco3)cc12 | inactive: 70% |
| CCc1ccc(NC(=O)Cn2c(=O)n(CCC(=O)NCc3ccc4c(c3)OCO4)c(=O)c3ccccc32)cc1 | inactive: 110% |
| Cc1cc(NC(=O)c2cc(-c3ccc(Cl)cc3)on2)nn1Cc1ccc(Cl)cc1 | inactive: 145% |
| CCC1CN(C(=O)Nc2cc(C)cc(C)c2)c2ccccc2O1 (stereo not drawn) | inactive: 85% |

Reference: PubChem BioAssay AID463173 (ICCB-Longwood Screening Facility, Harvard Medical School, 2010)
